This is one part of the list.
The sequences below were run on PfSIP2 AP2 domain 1 (GST-tagged) (assay: gcPBM binding intensity (ln(normalized median fluorescence intensity)); higher = stronger DNA binding).
In short: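 The highest Masliner-normalised natural-log median intensity across replicate spots of either probe orientation is reported as binding intensity. GST-tagged P. falciparum DNA-binding domains expressed in E. coli were applied for 1 h to an Agilent 4 × 180k array of primer-extended double-stranded 36-bp intergenic genomic probes plus negative controls, and bound protein was detected with Alexa488 anti-GST antibody and scanned at 488 nm.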
For “AAAAGGGAAAAAATTAAAATTATATATATATATATG [CACACA_negctrl_site137]”, the “gcPBM binding intensity (ln)” value was 7.21.
“TTATTAGAGATGTTAAGATATAGGGATAATTTCGAT [XGTACX_negctrl_site395]” was tested, and the “gcPBM binding intensity (ln)” value was 6.92.
For “TACATATATTTAAGGAGTACAAAAAATAATGATAAA [XGTACX_site3539]”, the “gcPBM binding intensity (ln)” value was 7.39.
“AAGCTTAAAAATGGGGGTACGTCATAGGGATTCAAC [XGTACX_site8080]” was tested, and the “gcPBM binding intensity (ln)” value was 7.43.
With “AATATATAAACATATACACACAAAAACATATATATA [CACACA_site4855]” the “gcPBM binding intensity (ln)” value was 7.46.
“TTTGACACAATATTTTGTACGAAACTATTAATTCAA [XGTACX_site4853]” was tested, and the “gcPBM binding intensity (ln)” value was 6.85.
“GACATAGTATTAAGTTGTACATATATAAAAATAAAT [XGTACX_site1583]” was tested, and the “gcPBM binding intensity (ln)” value was 6.95.
In the case of “TTGCTTTTCATTTATTGTACATACCCAGTAGGATAA [XGTACX_site3939]”, the “gcPBM binding intensity (ln)” value is reported as 7.22.
With “AATGTACACGCACCCACACACAAACAAATATAAATA [CACACA_site7319]” the “gcPBM binding intensity (ln)” value was 10.3.
In the case of “TTACGAATGAATATATGTACATATATATATATATAT [XGTACX_site3790]”, the “gcPBM binding intensity (ln)” value is reported as 8.97.
For “ATGTTTTCAAAAATAAAACATATAAATAAATAAATA [TGCATGCA_negctrl_site226]”, the “gcPBM binding intensity (ln)” value was 6.77.
“CAACAACAAATGAGAAGTACATAAATATTAACAATA [XGTACX_site4625]” was tested, and the “gcPBM binding intensity (ln)” value was 6.91.
In the case of “TTATAATACCTACAAAGTACAAACTTAAATATGAAC [XGTACX_site5684]”, the “gcPBM binding intensity (ln)” value is reported as 6.94.
In the case of “AAATTTTTTTTTTAATTTTTTATTTAAAAAAAATAT [TGCATGCA_negctrl_site174]”, the “gcPBM binding intensity (ln)” value is reported as 6.79.
“GTTATAAATAAATATACACACATATATAAAATACAT [CACACA_site7146]” was tested, and the “gcPBM binding intensity (ln)” value was 7.14.
“TATAACATAAAACACACACACATACATACACAAAAA [CACACA_site1804]” was tested, and the “gcPBM binding intensity (ln)” value was 7.29.
“CGCTTTATTTATATATGTACATATATATATATATAC [XGTACX_site5012]” was tested, and the “gcPBM binding intensity (ln)” value was 7.42.
For “AAGGCAAACAGACACACACACATATATACCTATATA [CACACA_site7077]”, the “gcPBM binding intensity (ln)” value was 7.12.
In the case of “GTTATACACATTACATGTACAAAAGTTGCACTTCAT [XGTACX_site6023]”, the “gcPBM binding intensity (ln)” value is reported as 9.45.
For “GTTGCCATCATTTGGCGTACAGTCAAAACCAAATCT [XGTACX_site1398]”, the “gcPBM binding intensity (ln)” value was 6.73.
For “TTTGTTCAATTTACATGTACAGATATAATCTAACAT [XGTACX_site370]”, the “gcPBM binding intensity (ln)” value was 6.89.
“TCTATTAAAACAAATTGTACTTATTGATAAAGAATA [XGTACX_site3645]” was tested, and the “gcPBM binding intensity (ln)” value was 6.91.
For “ATTTTTATTTTATATACACACAATAATAATATAATA [CACACA_site4015]”, the “gcPBM binding intensity (ln)” value was 7.18.
In the case of “AAGAGCAACCAAATAGAAAAAGGAAAATAAAAGGAA [CACACA_negctrl_site100]”, the “gcPBM binding intensity (ln)” value is reported as 6.86.
“TCCTATTTTATATAATGTACATAAATATATTACATA [XGTACX_site2720]” was tested, and the “gcPBM binding intensity (ln)” value was 7.13.
“TTACAAATGTAGAAAAGTACATATAATAATAATTTA [XGTACX_site3044]” was tested, and the “gcPBM binding intensity (ln)” value was 7.2.
For “ATGGATAATAATAAGTGTACACATATATTTAGAAGA [XGTACX_site244]”, the “gcPBM binding intensity (ln)” value was 7.29.
“GGTAGAAAATCAGTTAAACACACACCGAAAAAAAAA [CACACA_site8934]” was tested, and the “gcPBM binding intensity (ln)” value was 7.24.
“ATTTGTATAATAAGTTGTACAATTCTTACAATATAA [XGTACX_site4164]” was tested, and the “gcPBM binding intensity (ln)” value was 6.96.
For TTTAAGCGTTCACTGCTGCACTTTTATGTTGTGACC, the “gcPBM binding intensity (ln)” value was 7.95.
With “AAAAAAAAAAAAAGCACACACACATATGCGTATATA [CACACA_site953]” the “gcPBM binding intensity (ln)” value was 7.06.
With “TATAAGAAATAAAACCTGATTATAAACCTGTAACCA [CACACA_negctrl_site1302]” the “gcPBM binding intensity (ln)” value was 6.72.
For “TAAATATAACAGAATAATATGTGGATTAATAAATGA [CACACA_negctrl_site438]”, the “gcPBM binding intensity (ln)” value was 6.81.
For “ATATAATATGTTGAATGTACTTAAAAAAATGTATCT [XGTACX_site5385]”, the “gcPBM binding intensity (ln)” value was 7.
With “TTAAGTTACAATTCTCGTACACATTAAAAGAAAATT [XGTACX_site699]” the “gcPBM binding intensity (ln)” value was 7.
With “AAAAAAAAAAAAAAAACACACATGTATACTAGAATA [CACACA_site7108]” the “gcPBM binding intensity (ln)” value was 7.56.
In the case of “TTTTAATTATATTATGCACACACAATTGGAAAAAAA [CACACA_site8598]”, the “gcPBM binding intensity (ln)” value is reported as 8.28.
With “AACAAATAAGATAAATGACTTAACAAAAGAAAAAAG [CACACA_negctrl_site1409]” the “gcPBM binding intensity (ln)” value was 6.77.
In the case of “GTAAAAAATATGAATACACACATAAAGGAAATAACA [CACACA_site1997]”, the “gcPBM binding intensity (ln)” value is reported as 7.17.
For “AAAAAAAAAAAATTCACACACATATAAAAAATTAAG [CACACA_site728]”, the “gcPBM binding intensity (ln)” value was 6.9.
“AAAAAAAAAAAAAAAAGTACAGACGTCAAAAAAAAA [XGTACX_site4817]” was tested, and the “gcPBM binding intensity (ln)” value was 8.09.
With “TAATATATAAGTATTTGTACATATTCATTCATCTAT [XGTACX_site2935]” the “gcPBM binding intensity (ln)” value was 6.78.
In the case of “TTTTTTTTTTTTTTTTTTTTTTTTGGGTCCCATACA [CACACA_negctrl_site913]”, the “gcPBM binding intensity (ln)” value is reported as 7.22.
With “CACTATCAATATATATGTACATATATATATATATAT [XGTACX_site7854]” the “gcPBM binding intensity (ln)” value was 9.16.
